Assay results published in EP4702992A1, “ANTIBODY-DRUG CONJUGATE” (priority 2023, dated 2024).

B1: D-ADC55-1-8 (conjugate)
heavy: QVQLVQSGAEVKKPGASVKVSCKASGYTFTDYYMKWVRQAPGQRLEWMGAFNLNNGDTFYNQKFKGRVTITRDTSASTAYMELSSLRSEDTAVYYCARDVYGYGDYWGQGTSVTVSSASTKGPSVFPLAPSSKSTSGGTAALGCLVKDYFPEPVTVSWNSGALTSGVHTFPAVLQSSGLYSLSSVVTVPSSSLGTQTYICNVNHKPSNTKVDKKV[human IgG1 Fc with L234A L235A P329A P331S (EU numbers) not given here]
light: DIVMTQSPDSLAVSLGERATINCRASKSVSTSGYSYMHWYQQKPGQPPKLLIYLASNLDSGVPDRFSGSGSGTDFTLTISSLQAEDVAVYYCQHSRELPYTFGGGTKLEIKRTVAAPSVFIFPPSDEQLKSGTASVVCLLNNFYPREAKVQWKVDNALQSGNSQESVTEQDSKDSTYSLSSTLTLSKADYEKHKVYACEVTHQGLSSPVTKSFNRGEC
B2: D-ADC12-1-8 (conjugate)
heavy: B1 heavy
light: B1 light
B3: D-ADC2-1-8 (conjugate)
heavy: B1 heavy
light: B1 light

Legend:
NCI-H69 xenograft tumor = assay: Pharmacodynamic evaluation in NCI-H69 xenograft tumor mouse model; type: in vivo, nu/nu nude mice; details: NCI-H69, 3 mg/kg, single intravenous injection
Excerpt: (§1) Cells were taken from the DLL3-positive cell strain NCI-H69 and inoculated into the right forelimb axilla of nu/nu nude mice at 10^7 cells/mouse (3 mice per group). When the mean tumor volumes of the mice reached about 140 mm^3, the mice were randomly grouped and subjected to administration by a single intravenous injection. The day of grouping was defined as Day 0, and the administration was started on Day 0. After tumor grafting, the experimental animals were routinely monitored for tumor growth and the effect of treatment on the normal behavior, specifically the activity, food and water intake, body weight gain or loss (the body weight was measured twice a week), and abnormalities in eyes, fur, and other aspects. Calculation formula for tumor volume: Tumor volume (mm^3) = 1/2 × (a × b^2) (where a represents the long diameter, and b represents the short diameter). Table 25: Pharmacodynamic evaluation of test drug in human small cell lung cancer xenograft NCI-H69 mouse model

NCI-H526 xenograft tumor = assay: Pharmacodynamic evaluation in NCI-H526 xenograft tumor mouse model; type: in vivo, nu/nu nude mice; details: NCI-H526, 3 mg/kg, single intravenous injection
Excerpt: as §1, with “NCI-H526” for “NCI-H69”, “160 mm^3 (groups 1-2),” for “140 mm^3,”, “24:” for “25:”

SHP77 xenograft tumor = assay: Pharmacodynamic evaluation in SHP77 xenograft tumor mouse model; type: in vivo, nu/nu nude mice; details: SHP77, 1 mg/kg, single intravenous injection; for Mean tumor volume (Day 0): Day 0 (day of grouping); for Mean tumor volume (Day 0) / Mean tumor volume (Day 22): mean ± standard error; for TGI(%) / Mean tumor volume (Day 22): Day 22
Excerpt: as §1, with “strain SHP77” for “strain NCI-H69”, “cells/mouse (7” for “cells/mouse (3”, “about 100 mm^3 (groups 1-6),” for “about 140 mm^3,”, “Table 23:” for “Table 25:”, “test drugs” for “test drug”, “xenograft SHP-77” for “xenograft NCI-H69”

[1] = DAR determination by reversed-phase chromatography; details: average drug loading per antibody
Method: The antibody sample was diluted to about 10 mg/mL with a suitable buffer (consistent with the sample buffer), and an appropriate amount of a reducing agent TCEP was added, with the number of equivalents adjusted according to a target DAR (8-10 equivalents for a target DAR of 8). The pH was then adjusted to 7-7.4 with a Tris buffer, and the antibody was reduced at room temperature for 1-1.5 h. The reduced intermediate state of the antibody could be monitored by CE-SDS. […] The conjugation reaction was performed at room temperature for about 30 min. After the conjugation was completed, the reaction liquid was first filtered, and then subjected to buffer exchange by ultrafiltration using a centrifugal concentration tube to remove excess linker-drug and other small-molecule impurities. After the purification was completed, the resulting sample was subjected to DAR determination by reversed-phase chromatography.
(§2) The concentration of the antibody trastuzumab was adjusted to 10 g/L using a phosphate buffer solution (pH 7.0), and the antibody solution after buffer exchange was placed into a centrifuge tube, followed by the addition of 8.0 equivalents of 5 mM TCEP (Adamas-beta, Ltd.). […] The average drug loading per antibody was determined by reversed-phase chromatography.
as §2, with “farletuzumab or farletuzumab FcS” for “trastuzumab”, “7.0” for “8.0”
as §2, with “33B” for “trastuzumab”, “10.0” for “8.0”, “chromatography. […]” for “chromatography.”

SHP77 = assay: In vitro cytotoxicity of DLL3-ADC (CTL Plus); type: cell-based; details: SHP77, 6 days
Method: (§3) The DLL3-positive cell strains NCI-H82, SHP77, NCI-H526, and NCI-H209 and the DLL3-negative cell strains A431 and NCI-H69 were used to evaluate the in vitro cytotoxicity mediated by D-ADC55-1-8. Cells were harvested, cultured with serially diluted D-ADC55-1-8, and then incubated at 37 °C. The viability was determined using CTL Plus after 6 days. Readings and analyses were performed on EnVision 2105 (PerkinElmer) to determine IC50 (half-maximal inhibitory concentration) values.
(§4) Experimental procedures: The test cells were adjusted to a cell density of 6.7 × 10^4 cells/mL and seeded into a 96-well plate at 75 µL/well. The plate was incubated overnight in an incubator at 37 °C with 5% CO2. 5-fold gradient dilutions of D-ADC55-1-8 (0-100 nM) with a total of 9 concentration gradients were added to the cells at 75 µL/well. The blank control was the medium for the corresponding cells. Two replicate wells were set for each concentration. After the cells were cultured in an incubator at 37 °C with 5% CO2 for 6 days, 50 µL of CTL Plus (manufacturer: Beyotime, Cat. No.: C0068XL) luminescent reagent was added, and the cells were incubated in the dark at room temperature for 10 min. The chemiluminescence detection was performed on an EnVision 2105 microplate reader. […] The data were processed and analyzed using GraphPad Prism, and IC50 was calculated. […] Table 22: In vitro cytotoxicity of DLL3-ADC

NCI-H69 = assay: In vitro cytotoxicity of DLL3-ADC (CTL Plus); type: cell-based; details: NCI-H69, 6 days
Method: as §3, §4

NCI-H82 = assay: In vitro cytotoxicity of DLL3-ADC (CTL Plus); type: cell-based
Method: as §3, §4

NCI-H526 = assay: In vitro cytotoxicity of DLL3-ADC (CTL Plus); type: cell-based; details: NCI-H526, 6 days
Method: as §3, §4

A431 = assay: In vitro cytotoxicity of DLL3-ADC (CTL Plus); type: cell-based; details: A431 (DLL3-negative), 6 days
Method: as §3, §4

NCI-H209 = assay: In vitro cytotoxicity of DLL3-ADC (CTL Plus); type: cell-based; details: NCI-H209, 6 days
Method: as §3, §4

[2] = Day 0 (day of grouping), mean ± standard error

Molecule	Mean tumor volume (Day 0) (NCI-H69 xenograft tumor; [2]) [mm^3]	Mean tumor volume (Day 14) (NCI-H69 xenograft tumor; Day 14, mean ± standard error) [mm^3]	TGI(%) (NCI-H69 xenograft tumor; table head Day 14)	Mean tumor volume (Day 0) (NCI-H526 xenograft tumor; [2]) [mm^3]	TGI(%) (NCI-H526 xenograft tumor; Day 21)	Mean tumor volume (Day 21) (NCI-H526 xenograft tumor; Day 21, mean ± standard error) [mm^3]	Mean tumor volume (Day 0) (SHP77 xenograft tumor) [mm^3]	TGI(%) (SHP77 xenograft tumor)	Mean tumor volume (Day 22) (SHP77 xenograft tumor) [mm^3]	DAR [1]	IC50 (SHP77) [nM]	IC50 (NCI-H69) [nM]	in vitro cytotoxicity (NCI-H82; DLL3-positive cell strains (NCI-H82, SHP77, NCI-H526, NCI-H209), 6 days, in words)	IC50 (NCI-H82; NCI-H82, 6 days, CTL Plus) [nM]	IC50 (NCI-H526) [nM]	IC50 (A431) [nM]	IC50 (NCI-H209) [nM]
B1	142.7±53.2	323.7±244.6	76.5	162.7±21.1	113.0	57.3±49.7	104.1±14.5	98.1	158.3±82.4	8.0	36.6	> 100	good in vitro cytotoxicity	4.4	16.7	> 100	1.07
B2	–	–	–	–	–	–	104.3±14.7	97.1	187.7±63.9	8.0	–	–	–	–	–	–	–
B3	–	–	–	–	–	–	104.1±15.6	96.6	199.2±166.9	8.0	–	–	–	–	–	–	–
